Assay results from PMC4336329 (PLoS ONE, 2015).
In all, about 310,000 compounds went through this assay and about 14,000 (4.5%) showed an effect of 50% or more. Effects have a minus sign here. Some of the results follow.

target: human ether-à-go-go-related gene (hERG) potassium channel (human, UniProt Q12809); assay: primary screen, population patch clamp on CHO cells stably expressing hERG
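Note: peak tail current of the secondary pulse compared with the same well before compound.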

Sequence of human ether-à-go-go-related gene (hERG) potassium channel (Q12809 whole entry, looked up): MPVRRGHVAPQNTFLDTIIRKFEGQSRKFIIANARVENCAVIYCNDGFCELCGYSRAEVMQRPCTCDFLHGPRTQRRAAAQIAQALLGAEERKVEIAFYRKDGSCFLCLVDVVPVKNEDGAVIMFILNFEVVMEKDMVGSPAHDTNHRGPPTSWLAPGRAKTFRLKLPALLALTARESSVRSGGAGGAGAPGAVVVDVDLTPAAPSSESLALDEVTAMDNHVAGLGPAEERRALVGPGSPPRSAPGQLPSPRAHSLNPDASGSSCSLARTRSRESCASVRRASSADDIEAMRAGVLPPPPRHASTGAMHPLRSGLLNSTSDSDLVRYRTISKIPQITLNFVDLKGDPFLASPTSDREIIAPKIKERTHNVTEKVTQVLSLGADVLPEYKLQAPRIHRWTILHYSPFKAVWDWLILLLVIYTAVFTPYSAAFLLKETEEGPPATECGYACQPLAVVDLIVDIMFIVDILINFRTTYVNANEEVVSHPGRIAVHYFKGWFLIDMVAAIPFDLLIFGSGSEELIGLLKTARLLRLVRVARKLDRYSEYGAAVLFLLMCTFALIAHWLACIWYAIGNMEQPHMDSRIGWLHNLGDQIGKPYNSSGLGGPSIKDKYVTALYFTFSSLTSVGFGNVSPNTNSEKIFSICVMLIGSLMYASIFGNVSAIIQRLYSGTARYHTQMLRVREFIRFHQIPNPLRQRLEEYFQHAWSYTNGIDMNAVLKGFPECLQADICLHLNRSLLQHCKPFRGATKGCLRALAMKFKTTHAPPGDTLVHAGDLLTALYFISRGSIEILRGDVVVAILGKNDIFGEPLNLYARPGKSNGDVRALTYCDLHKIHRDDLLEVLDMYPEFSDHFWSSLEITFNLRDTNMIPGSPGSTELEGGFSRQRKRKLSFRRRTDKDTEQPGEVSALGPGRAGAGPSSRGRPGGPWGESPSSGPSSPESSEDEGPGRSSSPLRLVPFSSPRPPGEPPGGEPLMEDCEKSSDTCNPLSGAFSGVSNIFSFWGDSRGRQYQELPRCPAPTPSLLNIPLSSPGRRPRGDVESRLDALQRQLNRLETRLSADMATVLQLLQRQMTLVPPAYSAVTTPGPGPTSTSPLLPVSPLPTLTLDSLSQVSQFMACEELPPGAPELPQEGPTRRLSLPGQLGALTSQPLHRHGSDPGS

Structure (SMILES) | hERG current change (%, negative = inhibition) at 10uM
CCN1CCN(c2cc(C)c3cc(NC(=O)c4cccc(OC)c4)ccc3n2)CC1 | -50.9%
Cc1ccc(NC(=O)CN2C(=O)NC3(CCc4ccccc43)C2=O)cc1 (stereo not drawn) | 8.14%
CC(=O)C1=C(O)C(=O)N(c2ccc(O)cc2)C1c1cccc(F)c1 (stereo not drawn) | 22.4%
COc1ccc(/C=C2\SC(=O)N(CC(=O)NCCC(C)C)C2=O)cc1OC | -8.73%
COc1ccc(S(=O)(=O)NC2CCCC2)c(OC)c1 | 9.46%
CCOC(=O)N1CCN(C(=O)CCN2C(=O)c3ccccc3S2(=O)=O)CC1 | 5.79%
COc1ccc(C2(C)NC(=O)N(CC(=O)Nc3ccc(-c4nc5ccc(C)cc5s4)cc3)C2=O)cc1 (stereo not drawn) | 24.7%
COc1ccc(CNC(c2ccccc2)c2ccc(Cl)cc2)cc1 (stereo not drawn) | 6.38%
Cc1nc2cc(C(F)(F)F)ccc2n1C | -1.2%
CCOC(=O)c1c(NC(=O)c2ccc(C)cc2)sc2c1CC(C)(C)OC2 | 4.97%
Cc1nc(-c2ccc([N+](=O)[O-])cc2)c(-c2ccccc2)o1 | -26.6%
COCCNC(=O)c1ccc(CS(=O)(=O)c2ccc(Cl)cc2)o1 | 12.1%
O=C(NNC(=S)NCc1ccccc1)c1ccccc1OC(F)F | 10.8%
CC(=O)N1CCN=C1SCc1cccc(Cl)c1 | -3.91%
COc1ccc(/C=N/OC(=O)Nc2ccccc2OC)cc1 | -10.7%
Oc1[nH]c2ccc(Br)cc2c1N=NC(=S)N1CCOCC1 | 11.5%
COc1ccc(CCNC(=O)COC(=O)Cc2ccccc2)cc1 | 9.35%
CCc1nnc(NC(=O)CSc2nnc(-c3c[nH]c4ccccc34)n2CCOC)s1 | -8.63%
COc1cc(OC)cc(C(=O)N[C@H](C(=O)Nc2cc(F)ccc2C)C(C)C)c1 | 8.53%

Structure (SMILES) | hERG current change (%, negative = inhibition) at 10uM
Cc1ccc(Cl)cc1NC1=C/C(=N\S(=O)(=O)c2cccs2)c2ccccc2C1=O | 3.07%
O=C(c1ccc2nc[nH]c2c1)N1CCN(c2cccc(C(F)(F)F)c2)CC1 | -11.4%
O=C(CSc1ccc2c(c1)OCCO2)NC(=O)NC1CCCC1 | -4.02%
CSc1ccc(Cc2ccc(Cl)cc2Cl)nn1 | 0.552%
CCCCSc1nsc(NC(C)=O)n1 | -10.7%
O=C(O)c1cccc(NC(=O)c2cccc(S(=O)(=O)Nc3cccc([N+](=O)[O-])c3)c2)c1 | -0.182%
C=CCn1c(COc2ccccc2F)nnc1SCC(=O)Nc1cc(C)on1 | 16.1%
Cc1sc2c(c1C)c(=O)n(-c1ccccc1)c1nnc(C)n21 | 7.61%
CC(C)NS(=O)(=O)c1ccc(OCC(=O)NCc2ccccc2)cc1 | 6.16%
Cc1ccccc1-c1cc2nc(C)c(Cl)c(=O)n2[nH]1 | -8.26%
COc1ccc2nc(C)cc(SCC(=O)N/N=C/c3ccc(O)c(O)c3)c2c1 | 19.9%
Cc1ccc(/C=C/C(=O)C2C(=O)c3ccccc3C2=O)cc1 | 12%
CN(C(=O)CC1C(=O)NCCN1C/C=C/c1ccccc1)C1CCOCC1 (stereo not drawn) | 10.5%
COc1ccc(CNC(=O)c2c(O)c3cc(OC)c(OC)cc3[nH]c2=O)cc1OC | 17.8%
O=c1c2ccccc2nc(SCc2cn3ccsc3n2)n1-c1ccccc1F | 4.16%
O=C(NCCC1=CCCCC1)C1CCN(S(=O)(=O)c2cnc[nH]2)CC1 | 2.4%
CC(=O)NS(=O)(=O)c1ccc(N)cc1 | -0.205%
COc1ccc(C(=O)COC(=O)c2cccnc2SC)cc1 | 4.75%
COc1ccc(CC(CN)c2ccccc2)cc1 (stereo not drawn) | 5.96%

Structure (SMILES) | hERG current change (%, negative = inhibition) at 10uM
CC(c1ccccc1)n1c(N2CCN(C)CC2)nc2c1c(=O)[nH]c(=O)n2C (stereo not drawn) | -13.1%
O=S(=O)(c1ccc(-c2csc(=Nc3ccccc3)n2CCCN2CCOCC2)cc1)N1CCOCC1 | -40.9%
c1ccc2c(c1)CCc1snnc1-2 | 10%
COC/C=C/C1=CC2=CC(=O)C(C)(OC(=O)c3cnc4ccccc4n3)C(=O)C2=CN1CC(C)C (stereo not drawn) | 17%
COc1ccc(CCNC(=O)CCNS(=O)(=O)c2ccc3c(c2)CCN3C(C)=O)cc1OC | -7.79%
COc1cc(NC(=S)NCCC(c2ccccc2)c2ccccc2)cc(OC)c1 | 3.35%
N#CCc1c(C#N)c(N)nc(N2CCCC(O)C2)c1C#N (stereo not drawn) | 9.17%
CCSc1cc(N2CC(C)OC(C)C2)nc(-c2ccccc2Cl)n1 (stereo not drawn) | -8.67%
CCCCN(C(=O)Cn1ncc(Cl)c(Cl)c1=O)c1c(N)n(CC(C)C)c(=O)[nH]c1=O | 26.1%
C/C=C/c1ccc(OCCCn2cncn2)c(OC)c1 | 6.41%
O=C(Cn1ccc(NC(=O)OCc2ccccc2)nc1=O)NCc1nc2ccccc2[nH]1 | 21.2%
O=C(O)CCn1c(-c2ccccc2)cc2c1CCCC2=O | 14.1%
CCC1=C(OC(=O)N(CC)CC)N2C(=O)OC(=NCCc3c[nH]c4ccccc34)[C@]2(C)[C@H]2C1=CC[C@H]1C(=O)N(C)C(=O)[C@H]12 | 6.46%
COc1ccccc1Nc1nc(-c2c(C)[nH]c3ccccc23)cs1 | 16.1%
O=C(Nc1cccc([N+](=O)[O-])c1)c1ccc2c(c1)OCCO2 | 11.9%
CNP(=O)(Oc1ccccc1)OC12CC3CC(CC(C3)C1)C2 (stereo not drawn) | -2.75%
COc1ccc(-c2cc(=O)[nH][nH]2)cc1 | 5.23%
C=CCn1c(C)cc(C(=O)CSc2nnc(NC(C)C)s2)c1C | -0.729%
CSc1nc2ccccc2cc1/C=C(\C#N)c1ccc(Cl)cc1Cl | 4.91%
